{
  "source": "paper doi:10.1101/2020.12.24.423824",
  "about": "(bioRxiv, 2020)",
  "key": {"RlucII-CLN3": {"target": "T1, RlucII-CLN3 (UniProt Q13286 1-438)", "T1 sequence (looked up)": "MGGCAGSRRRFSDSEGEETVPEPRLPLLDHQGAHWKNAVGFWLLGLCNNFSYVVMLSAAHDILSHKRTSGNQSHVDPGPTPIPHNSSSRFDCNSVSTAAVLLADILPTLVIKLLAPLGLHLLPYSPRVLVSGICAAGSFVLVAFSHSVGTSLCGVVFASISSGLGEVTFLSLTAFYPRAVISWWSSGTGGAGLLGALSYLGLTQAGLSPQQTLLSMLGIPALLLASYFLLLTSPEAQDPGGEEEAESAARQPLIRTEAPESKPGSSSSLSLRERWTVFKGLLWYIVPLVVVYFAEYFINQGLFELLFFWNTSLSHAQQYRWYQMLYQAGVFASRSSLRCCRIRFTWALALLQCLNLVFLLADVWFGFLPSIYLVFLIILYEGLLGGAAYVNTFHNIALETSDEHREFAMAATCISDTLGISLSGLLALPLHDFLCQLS", "test": "FRET or BRET"}, "Vps26A-nLuc": {"target": "Vps26A-nLuc (UniProt O75436)", "test": "FRET or BRET"}},
  "data": [
    {"binder": "sortilin-YFP (receptor) [letters of about 700 residues left out]SVPIILAIVGLMLVTVVAGVLIVKKYVCGGRFLVHRYSVLQQHAEANGVDGVDALDTASHTNKSGYHDDSDEDLLE", "values": [
      {"measurement": "fold increase of BRET50 in CLN5KO cells against wild-type HeLa cells", "setting": "RlucII-CLN3", "result": 6, "unit": "fold"},
      {"measurement": "fold increase of BRET50 in CLN5KO cells against wild-type HeLa cells", "setting": "Vps26A-nLuc", "result": 4, "unit": "fold"}
    ]}
  ]
}
